Assay [1] deals with Phenylethanolamine N-methyltransferase (Homo sapiens) (UniProt P11086). The experiment in a line: Confirmatory Screen for Target Class Profiling of Small Molecule Inhibitors of Methyltransferases (AID 1745852).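 Further: inhibitor potency for blocking SAH production.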 To be noted: MTase-Glo luminescence, SAH detection, recombinant enzyme; measured here: PNMT inhibition potency.
Assay [2] deals with Nicotinamide N-methyltransferase (Homo sapiens) (UniProt P40261). Described as above. To be noted: MTase-Glo luminescence, SAH detection, recombinant enzyme; measured here: NNMT inhibition potency.
Sequence of UniProt P40261 (P40261 whole entry, looked up): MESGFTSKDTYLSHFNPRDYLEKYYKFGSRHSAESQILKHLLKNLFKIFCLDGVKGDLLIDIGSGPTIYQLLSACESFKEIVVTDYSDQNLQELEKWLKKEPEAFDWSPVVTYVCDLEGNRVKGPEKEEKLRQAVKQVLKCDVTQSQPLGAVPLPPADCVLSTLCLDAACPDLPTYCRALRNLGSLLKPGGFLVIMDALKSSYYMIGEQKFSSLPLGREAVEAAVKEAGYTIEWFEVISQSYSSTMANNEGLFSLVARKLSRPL
Assay [3] is described as follows: qHTS drug screen for cell cycle checkpoint inhibitors in PARPi-resistant BRCA-mutant ovarian cancer cell lines. (AID 1963452). Particulars: PEO1/OlaR viability, CellTiter-Glo luminescence, 96 h. The method, boiled down:
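PEO1, PEO4 and PEO1/OlaR ovarian cancer cells, 600 per well, exposed 96 h at 37C to a dilution series. Viability read by CellTiter-Glo luminescence, normalized to DMSO and empty wells; activity summarized as Z-AUC.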
In general terms: Quantitative high-throughput screening tests each substance at several concentrations.

Assay [4] can be described thus: qHTS for identification of novel therapeutic agents for treatment of microphthalmiaassociated transcription factor (MiT) renal cell carcinoma (RCC) (AID 1963991). To be noted: CellTiter-Glo, 48 h; for z-score: stronger effect = lower value. The method, boiled down:
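Curves over 11 concentrations were fitted to CellTiter-Glo luminescence, scaled between empty wells (0%) and DMSO (100%) viability. Cells were UOK109, UOK124 and UOK145 TFE3-fusion RCC lines at 500/well, exposed 48 hours at 37 C.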

Setting [5] is: measured here: PEO1 parental viability.
The mark [6] stands for this setting: TFE3-RCC UOK109 viability, measured here: UOK109 Z-AUC.
[7] abbreviates: TFE3-RCC viability, measured here: UOK124 Z-AUC.
The mark [8] stands for this setting: TFE3-RCC viability, measured here: UOK124 cell viability.
[9] abbreviates: TFE3-RCC viability, measured here: UOK145 Z-AUC.
[10] abbreviates: TFE3-RCC viability, measured here: UOK145 cell viability.

Some of the results follow. Shown are side measurements of this screen, not its main read-out; they come without a call. For some of these results: Compounds called inactive in the main read-out are mostly missing here. Words in brackets tell the shape of the fitted curve; partial curves, single points and poor fits give uncertain potencies.
Tags describe the fitted curve by direction and shape.

Sequence of UniProt P11086 (P11086 whole entry, looked up): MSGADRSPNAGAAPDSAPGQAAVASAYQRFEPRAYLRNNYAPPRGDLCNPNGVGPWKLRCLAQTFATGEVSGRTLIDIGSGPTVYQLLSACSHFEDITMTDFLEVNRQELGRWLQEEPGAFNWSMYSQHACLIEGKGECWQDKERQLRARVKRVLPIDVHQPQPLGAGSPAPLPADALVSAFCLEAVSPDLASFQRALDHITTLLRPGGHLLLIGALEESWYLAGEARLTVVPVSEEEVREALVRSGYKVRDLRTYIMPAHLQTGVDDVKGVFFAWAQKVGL

What is called IC50 is the point on the concentration scale where inhibition reaches its midpoint. Take `Cc1ccc(NS(=O)(=O)c2ccc3[nH]c(=O)[nH]c3c2)cc1F`: the IC50 in assay [1] was 21.5 µM [falling, partial curve].
Regarding `O=c1c2ccccc2n2c(-c3cc(Cl)ccc3O)nnc2n1Cc1ccc(F)cc1`, the IC50 in assay [1] was 27.1 µM [falling, partial curve, poor fit].
By AC50 is commonly meant the midpoint of the concentration-response curve, whichever way the signal moves. On to `Cc1ccccc1-n1c(Cn2nc(-c3cccc(O)c3)c3c(N)ncnc32)nc2cccc(C)c2c1=O`, for which the IC50 in assay [2] was 24.1 µM [falling, partial curve, poor fit]. In addition, the AC50 in assay [3] (setting [5]) is 17.4 µM [falling, single point]; in assay [4] (setting [8]), 0.418 µM [falling, full curve]; in assay [4] (setting [10]), 0.264 µM [falling, full curve]. Besides, the results for the z-score in assay [4] (setting [6]), in assay [4] (setting [7]) and in assay [4] (setting [9]) were -1.14, 0.516 and -0.374, respectively.
Take `Cc1[nH]c(/C=C2\C(=O)Nc3ccc(S(=O)(=O)N(C)c4cccc(Cl)c4)cc32)c(C)c1C(=O)N1CCN(C)CC1`: in assay [2], the half-maximal inhibitory concentration (IC50) was 6.07 µM [falling, partial curve]. Also, the AC50 in assay [3] (setting [5]) is 15.5 µM [falling, partial curve]; in assay [3] (measured here: PEO4 viability), 15.5 µM [falling, single point].
Consider `Cc1ccccc1-c1[nH]nc2ncc(-c3c(C)noc3C)nc12`, for which the IC50 in assay [1] was 44.1 µM [falling, partial curve, poor fit].
For the molecule `C[S+](=O)([O-])N1CCC(Cn2ccc3c(N4CCOCC4)nc(-c4cccc5[nH]ncc45)cc32)CC1`, in assay [1], the IC50 was 38.3 µM [falling, single point].
With `Nc1ccccc1NC(=O)c1ccc(CNc2nccc(-c3cccnc3)n2)cc1`, the concentration for half-maximal inhibition (IC50) in assay [2] was 4.85 µM [falling, partial curve, poor fit]. Further, the half-maximal activity concentration (AC50) is 1.95 µM [falling, full curve] in assay [3] (setting [5]); 3.47 µM [falling, full curve] in assay [3] (measured here: PEO4 viability); 2.35 µM [falling, full curve] in assay [4] (setting [8]); 11.8 µM [falling, partial curve] in assay [4] (setting [10]). Also, the z-score was -0.866 in assay [4] (setting [6]), -1.24 in assay [4] (setting [7]) and -0.639 in assay [4] (setting [9]).

Values taken from PubChem BioAssay (NCATS).
